This passage reports survival results from PubChem BioAssay AID463173 (ICCB-Longwood Screening Facility, Harvard Medical School, 2010).

The whole screen tested about 52,000 compounds, of which about 4,300 (8.3%) were called active. Cut-off read from the data, not from the text of the source: active = survival mostly below about 52% (no sharp cut-off); inactive = mostly above about 56%. Some of the results follow.

The test system of the test is DeltatarO mutant. The experiment in a line: S. aureus survival, RN4220 and DeltatarO strains – OD600, teichoic acid synthesis inhibitors, primary screen (AID 463173). As to conditions: S. aureus RN4220 wild type/DeltatarO growth, OD600, 18 h, hits give low values, screened at 18.75 µg/mL (by protocol).
As for `COCCNC(=O)CSc1nc2cc3c(cc2c(=O)n1CCCCCC(=O)NCCc1ccc(OC)c(OC)c1)OCO3`, the survival is inactive: 80%.
The same measure for `COc1ccc(-c2cc(C(F)(F)F)n3nc(-c4ccc(Cl)cc4)cc3n2)cc1OC`: inactive: 48%; for `Cc1ccc(N2CCN(Cc3nnc(-c4ccc5c(c4)OCO5)o3)CC2)c(C)c1`: inactive: 86%.
As for `Cc1cc(C)cc(NC(=O)CSCc2cc(=O)c3cc(Cl)ccc3[nH]2)c1`, the survival was inactive: 89%.
For the compound `Cc1cccc(NC(=O)Cn2nc(C)c3nn(-c4ccc(Cl)cc4)c(C)c3c2=O)c1C`, the survival was inactive: 94%.
On to `COc1ccc(N(C(=O)Cn2nnc3ccccc32)C(C(=O)NCC2CCCO2)c2sccc2C)cc1` (centres undefined), for which the survival is inactive: 94%.
The same measure for `COc1ccccc1N1CCN(C(=O)c2ccc3c(c2)N(Cc2ccccc2)C(=O)c2ccccc2S3(=O)=O)CC1`: inactive: 72%.
The same measure for `CC1(C)CC(=O)c2cc(-c3nc(-c4ccc(Br)cc4)cs3)c(=O)n(-c3ccccc3)c2C1`: inactive: 154%.
The same measure for `O=C(c1cnc(N2CCOCC2)c2ccccc12)N1CCN(c2ccc(F)cc2)CC1`: inactive: 85%.
For the compound `Cc1c(-c2nc(-c3ccc4c(c3)[nH]c(=O)n4C)no2)cccc1[N+](=O)[O-]`, the survival was inactive: 100%.
`Cc1cccc(-c2noc(CN(C(C)C)S(=O)(=O)c3ccc(Br)cc3)n2)c1`: the survival is active: 45%.
The same measure for `Cn1ncc(I)c1C(=O)N1CCc2ccccc2C1`: inactive: 86%.
In the case of `CCn1nc(-c2ccccc2)c(-c2ccccc2)c(C(=O)Nc2ccccc2C(N)=O)c1=O`, the survival was inactive: 77%.
Then `CN(C(=O)c1cnc(N2CCOCC2)c2ccccc12)c1ccccc1F`, with inactive: 94%; and `COc1ccc(-n2nnnc2C2CCN(S(=O)(=O)c3cccc(Cl)c3C)CC2)cc1`, with inactive: 78%.
The same measure for `C=CCNc1sc(C(=O)c2cccs2)c(N)c1C#N`: inactive: 110%.
Then `O=C(Cc1ccccc1)NC1CC(=O)N(c2ccc3c(c2)OCCO3)C1` (centres undefined), with inactive: 69%.
Consider `Cc1c(CC(=O)N2CCCCC2)c(=O)oc2c(C)c(O)ccc12`, for which the survival is inactive: 57%.
The same measure for `Cc1cc2c(cc1S(=O)(=O)CCC(=O)NCc1ccccc1)OCC(=O)N2`: inactive: 92%; for `O=C(OCc1ccccc1F)c1ccc(-c2nnn(Cc3ccccc3)n2)cc1`: inactive: 122%.
As for `O=C(O)CCS(=O)(=O)c1ccc(-c2ccccc2)cc1`, the survival was inactive: 99%.
The same measure for `CCN(CC)c1ccc(NC(=O)C(NS(=O)(=O)c2cccs2)C(C)C)c(C)c1` (centres undefined): inactive: 141%; for `COc1cc(OC)cc(C(=O)NCc2ccc3c(c2)CCN3C(=O)c2ccccc2)c1`: inactive: 83%.
With `Cc1ccc(-n2ncc3c(N4CCN(C)CC4)ncnc32)cc1`, the survival is inactive: 81%.
Then `O=C(Cn1nc(C(F)F)cc1C1CC1)NCCC1=CCCCC1`, with inactive: 99%; and `NC(=O)CSc1ncnc2c1cnn2-c1ccccc1`, with inactive: 82%.
Then `CN(C)c1ccc(-c2nc(-c3ccncc3)no2)cc1[N+](=O)[O-]`, with inactive: 81%; and `CCOC(=O)c1cc2oc(C)cc2n1CC(=O)N(C)C1CCCCC1`, with inactive: 92%; and `Cc1ccc(C)c(N2CCN(C(=O)c3cc(S(=O)(=O)N4CCCC4)c[nH]3)CC2)c1`, with inactive: 104%.
The same measure for `CCCOc1ccc(C(=O)Nc2ccc(NC(=O)c3cccc(Cl)c3)cc2)cc1`: inactive: 79%; for `COc1cccc(Nc2cc(-c3ccccc3)nc(C)n2)c1`: active: 37%.
Take `CCc1ccc(S(=O)(=O)Nc2cc(-c3cn4ccccc4n3)ccc2C)cc1`: the survival was inactive: 74%.
Then `COc1ccc(NC(=O)c2c(NCc3cccc(OC)c3)sc3c2CCC3)cc1`, with inactive: 66%.
Regarding `COc1ccc(C)c2sc(N(Cc3cccnc3)C(=O)COc3ccccc3)nc12`, the survival was inactive: 85%.
Then `Cc1cccc(Nc2ncnc3c2cnn3C)c1C`, with inactive: 75%; and `COc1cccc(C(=O)Nc2ccc3nc(SCc4ccc(C)cc4)sc3c2)c1`, with inactive: 64%.
Then `Cn1nc(-c2ccccc2)c(-c2ccccc2)c(C(=O)Nc2ccc(S(N)(=O)=O)cc2)c1=O`, with active: 49%.
As for `Cc1cccc(-n2c(SCC(=O)Nc3ccccc3Cl)nc3n[nH]c(C)c3c2=N)c1`, the survival is inactive: 88%.
Turning to `COc1ccc(CC(=O)N2CC(=O)Nc3ccc(Br)cc3C2c2ccc(F)cc2)cc1OC` (centres undefined), the survival is inactive: 175%.
In the case of `CCc1c(C)nc2cc(-c3ccc(OC)c(OC)c3)nn2c1NCC(C)(C)CN(C)C`, the survival is inactive: 98%.
On to `CCOc1ccc(Nc2c(S(=O)(=O)c3ccc(C)cc3)cnc3ccc(OC)cc23)cc1`, for which the survival is inactive: 59%.
With `C/C(=N\NC(=O)CCc1ccccc1)c1cccc(N)c1`, the survival was inactive: 102%.
For `COc1cc(C(=O)N2CCC(c3ccncc3)CC2)cc(OC)c1OC`, the survival was inactive: 88%.
As to `COc1cccc(CNC(=O)c2cc(-c3cccs3)nc3ccccc23)c1`, the survival was inactive: 66%.
In the case of `COCCCNC(=O)CSc1nc2nc(C)c(Cc3ccccc3Cl)c(C)n2n1`, the survival was inactive: 61%.
In the case of `CC(=O)N1CCCc2cc(S(=O)(=O)NCc3ccc(N(C)C)cc3)ccc21`, the survival was inactive: 87%.
Turning to `Cc1cc(C)nc(Nc2nc3ccccc3s2)n1`, the survival is inactive: 55%.
The same measure for `Cc1ccc(C)c(N2CCN(C(=O)C(C)n3nc(C)c4sc5ccccc5c4c3=O)CC2)c1` (centres undefined): inactive: 110%; for `COc1cccc(-n2cc(C(=O)NCCc3cccc(C)c3)c3ccccc3c2=O)c1`: inactive: 79%.
The same measure for `COC(=O)c1ccc(NC(=O)N2CCc3c([nH]c4ccccc34)C2c2ccc(C)cc2)cc1` (centres undefined): inactive: 129%.
The same measure for `CC(C)(Oc1ccc(Cl)cc1)C(=O)Nc1ccc(Cl)cn1`: inactive: 72%; for `CCOc1ccc(NC(=O)CN2C(=O)CCSc3ccc(S(=O)(=O)N4CCCC4)cc32)cc1`: inactive: 80%.
As for `COc1ccc(C(c2nnnn2C(C)(C)C)N2CCN(c3ccccc3)CC2)cc1` (centres undefined), the survival was inactive: 92%.
The same measure for `CSc1ccc(CCNC(=O)c2sc3ncccc3c2-n2cccc2)cc1`: inactive: 93%; for `O=C(NCC(c1cccnc1)N1CCOCC1)C(=O)Nc1cccc(Cl)c1` (centres undefined): inactive: 78%.
Then `CCOc1ccc(NC(=O)CSc2nc3nc(C)c(Cc4ccccc4)c(C)n3n2)cc1`, with inactive: 89%.
With `COc1cc(C(=O)NCC(c2ccc(N(C)C)cc2)N2CCCC2)cc(OC)c1OC` (centres undefined), the survival was inactive: 66%.
The same measure for `COc1ccc(/C=C(\C#N)c2nc(-c3ccc(Cl)c(Cl)c3)cs2)cc1OC`: inactive: 72%; for `CCc1ccc(NC(=O)CSc2nc(=O)n(Cc3cccnc3)c3c2CCC3)cc1`: inactive: 95%.
The same measure for `O=C(COc1ccccc1F)NC1CC(=O)N(c2ccc3c(c2)OCCO3)C1` (centres undefined): inactive: 68%; for `Cc1ccc(-c2nc3ccc(Br)cn3c2Nc2ccc3c(c2)OCO3)o1`: inactive: 71%; for `CCc1ccccc1NC(=O)CSc1nc2c(oc3ccccc32)c(=O)n1-c1ccccc1`: inactive: 62%.
Take `CC(C)c1cc2cc(/C=C/C(=O)O)c(O)cc2o1`: the survival is inactive: 60%.
Consider `COc1ccccc1CNC(=O)C1CCN(c2nn3c(=O)cc(C)nc3s2)CC1`, for which the survival was inactive: 74%.
The same measure for `CCC1CCCCN1CCCNC(=O)c1cc2c(Cl)nc3ccc(C)cc3c2s1` (centres undefined): inactive: 67%; for `CCC1CCCCN1CCCNC(=O)c1ccc2c(c1)N(Cc1cccc(C)c1)C(=O)c1ccccc1S2(=O)=O` (centres undefined): inactive: 128%; for `Cc1c2cnn(CC(=O)NCCc3ccccc3)c(=O)c2c(C)n1Cc1ccccc1Cl`: inactive: 81%.
The same measure for `COc1ccc(Cn2c(=O)c3oc4ccccc4c3n(CC(=O)Nc3cc(C)cc(C)c3)c2=O)cc1`: inactive: 62%.
The same measure for `COc1ccc(S(=O)(=O)n2nc(C)c(S(=O)(=O)N3CCCCCC3)c2C)cc1OC`: active: 6%; for `CCOC(=O)c1c(C)oc2ncnc(NCCCN3CCN(c4cc(C)ccc4C)CC3)c12`: inactive: 101%.
As for `COc1ccc(-c2c3c(nc4sc(C(=O)Nc5ccc(F)cc5)c(N)c24)CC(C)(C)CC3=O)cc1`, the survival was inactive: 56%.
`CCCOc1ccc(C(=O)N(Cc2cccs2)c2ccc(C)cc2)cc1`: the survival was inactive: 70%.
Regarding `CCOC(=O)c1ccc(NC(=O)C2CCN(C(=O)N3CC(C)Oc4ccc(C)cc43)CC2)cc1` (centres undefined), the survival is inactive: 62%.
Take `O=C(CCCN1CCOCC1)c1ccc2c(c1)OCCO2`: the survival is inactive: 70%.
For the compound `COc1ccccc1N1CCN(C(=O)c2cnn(-c3ccc(C)c(C)c3)c2C2CCN(C(=O)OC(C)(C)C)CC2)CC1`, the survival is inactive: 80%.
Take `Cc1ccc(N2CCN(C(=O)NCc3noc4ccccc34)CC2C)cc1` (centres undefined): the survival was active: 30%.
In the case of `Cc1cccc(C(=O)Nc2ccc(-c3nc4cc(C(C)C)ccc4o3)cc2)c1`, the survival was active: 34%.
As to `O=C1CC(c2nnc(Cc3ccc(Cl)cc3)o2)CN1c1ccccc1` (centres undefined), the survival was inactive: 124%.
On to `CCn1c(=N)c(C(=O)NC2CCCCC2)cc2c(=O)n3cccc(C)c3nc21`, for which the survival was inactive: 143%.
The same measure for `O=c1cc2nc(-c3cccs3)nc(SCCOc3ccc(Cl)cc3)n2[nH]1`: inactive: 80%; for `Cc1ccc(C)c(Cn2c(=O)n(Cc3ccc(C(=O)NC4CCN(Cc5ccccc5)CC4)cc3)c(=O)c3ccccc32)c1`: inactive: 79%.
Then `CC(=O)c1cccc(NC(=O)CSc2nnc3ccc(-c4ccc(C)cc4)nn23)c1`, with inactive: 82%; and `O=S(=O)(NCCc1csc2nc(-c3ccc(Cl)cc3)nn12)c1ccc(Oc2ccccc2)cc1`, with inactive: 73%; and `Cc1ccccc1-c1nc(C(N)=O)c2c(n1)n(-c1ccc3c(c1)OCO3)c(=O)n2C`, with inactive: 63%.
Regarding `Cc1nnc2c(Nc3ccccc3I)nc3nonc3n12`, the survival is inactive: 77%.
As to `O=C(NCc1ccco1)C1CCN(C(=O)N2CCOc3ccc(Cl)cc32)CC1`, the survival is inactive: 50%.
Then `CN(C)S(=O)(=O)c1ccc2c(c1)N(CC(=O)NCc1cccc(Br)c1)C(=O)CS2`, with inactive: 84%; and `COc1cccc(CNC(=O)CN2C(=O)CCCc3ccccc32)c1OC`, with inactive: 102%; and `CCOc1ccc(OCC)c(NC(=O)C(NS(=O)(=O)c2ccc(Br)s2)c2ccccc2)c1` (centres undefined), with inactive: 73%.
